Assay results reported in the antibiotic and cytotoxicity screens of Wong et al. (2023).
Some of the results follow.

Tests used:
HSkMC = human skeletal muscle cells; test: cytotoxicity call (relative viability < 0.9); conditions: 10 µM
HepG2 = test: cytotoxicity call (relative viability < 0.9); conditions: 10 µM
S. aureus RN4220 = test: growth inhibition call (relative growth <= 0.2); conditions: 50 µM

| Compound | cytotoxicity call (HSkMC) | cytotoxicity call (HepG2) | growth inhibition call (S. aureus RN4220) |
| --- | --- | --- | --- |
| C[C@@H]1CN([C@@H](C)CO)C(=O)c2cc(C#CCc3ccccc3)cnc2O[C@@H]1CN(C)C(=O)Cc1cccnc1 | inactive | inactive | inactive |
| C[C@@H]1CN([C@H](C)CO)C(=O)c2cc(NS(=O)(=O)c3cccs3)ccc2O[C@@H]1CN(C)S(C)(=O)=O | inactive | inactive | inactive |
| O=C(C[C@H]1CC[C@@H]2[C@H](COC[C@@H](O)CN2Cc2cccc(C(F)(F)F)c2)O1)NCCc1ccncc1 | inactive | active | inactive |
| O=C(C1=C[C@H](c2ccc3c(c2)OCO3)C[C@H](OCCCCO)O1)N1CCN(Cc2ccc3c(c2)OCO3)CC1 | inactive | inactive | inactive |
| CC(C)NC(=O)Nc1cccc2c1O[C@H](CN(C)Cc1ccc3c(c1)OCO3)[C@H](C)CN([C@@H](C)CO)C2=O | inactive | inactive | inactive |
| COc1ccc(S(=O)(=O)N(C)C[C@@H]2Oc3ncc(C#Cc4ccccc4)cc3C(=O)N([C@H](C)CO)C[C@@H]2C)cc1 | inactive | inactive | inactive |
| O=c1[nH]c(=O)n(C2CC(O)C(CO)O2)cc1F (stereo not given) | inactive | active | inactive |
| C[C@H]1CCCCO[C@@H](CN(C)Cc2ccc(C(=O)O)cc2)[C@@H](C)CN([C@@H](C)CO)C(=O)c2cc(NC(=O)c3ccccc3)ccc2O1 | inactive | inactive | inactive |
| COc1ccc(NC(=O)N(C)C[C@H]2OCCCC[C@H](C)Oc3ccc(NS(=O)(=O)c4ccc(Cl)cc4)cc3C(=O)N([C@H](C)CO)C[C@@H]2C)cc1 | inactive | inactive | inactive |
| CCN1CCC(N(C)S(=O)(=O)c2cn(C)c(=O)n(C)c2=O)CC1 | inactive | inactive | inactive |
| COc1ccc(S(=O)(=O)N(C)C[C@H]2Oc3c(NC(=O)c4cnccn4)cccc3C(=O)N([C@@H](C)CO)C[C@H]2C)cc1 | inactive | inactive | inactive |
| O=C(Nc1ccc2c(c1)[C@@H]1C[C@@H](CC(=O)N3CCc4ccccc4C3)O[C@@H](CO)[C@@H]1O2)C1CCOCC1 | inactive | inactive | inactive |
| CC(C)NC(=O)Nc1cccc2c1O[C@@H](CN(C)S(=O)(=O)c1cn(C)cn1)[C@H](C)CN([C@H](C)CO)C2=O | inactive | inactive | inactive |
| C[C@H]1CN([C@@H](C)CO)C(=O)Cc2cc(NC(=O)C3CC3)ccc2O[C@H]1CN(C)C(=O)NC1CCCCC1 | inactive | inactive | inactive |
| C[C@@H]1CN([C@@H](C)CO)C(=O)Cc2cc(NC(=O)Nc3cccc4ccccc34)ccc2O[C@@H]1CN(C)Cc1ccc(Cl)c(Cl)c1 | inactive | active | inactive |
| Cc1cc(C(=O)Nc2cccc3c2O[C@H](CN(C)S(=O)(=O)c2ccc(Cl)cc2)[C@@H](C)CN([C@@H](C)CO)C3=O)n(C)n1 | inactive | inactive | inactive |
| CN(C)CCN1C[C@@H]2CN(C(=O)[C@H]3CCCO3)C[C@H]2C1=O | inactive | inactive | inactive |
| CCC=CCC=CCC=CCC=CCC=CCCCC(=O)OCC [OMEGA-3-ACID ESTERS (EPA shown)] | – | – | inactive |
| Cl.NCCCC(=O)O [gamma-AMINOBUTYRIC ACID HYDROCHLORIDE] | – | – | inactive |

| Compound | cytotoxicity call (HSkMC) | cytotoxicity call (HepG2) | growth inhibition call (S. aureus RN4220) |
| --- | --- | --- | --- |
| CC(C=CC=C(C)C=CC1=C(C)CCCC1(C)C)=CC=CC=C(C)C=CC=C(C)C=CC1=C(C)CCCC1(C)C [beta-CAROTENE [2mM] ] | inactive | inactive | – |
| CC1(C)CCC2(C)CCC3(C)C(=CCC4C5(C)CCC(O)C(C)(C)C5CCC43C)C2C1 (stereo not drawn) [beta-AMYRIN ] | inactive | inactive | – |
| C[C@@H]1CN([C@@H](C)CO)S(=O)(=O)c2ccc(C#C[C@@H](C)O)cc2O[C@@H]1CN(C)C(=O)Nc1ccccc1 | inactive | inactive | inactive |
| COC(=O)C[C@H]1C=C[C@H](N)[C@H](CO)O1 | inactive | inactive | inactive |
| Cl.NCCCC(=O)O [gamma-AMINOBUTYRIC ACID HYDROCHLORIDE ] | inactive | inactive | – |
| O=c1cccc(C=Cc2ccc3c(c2)OCO3)o1 [6-(3,4-METHYLENEDIOXYSTYRYL)-alpha-PYRONE] | – | – | inactive |
| Cc1c(C)c2c(c(C)c1O)CCC(C)(CCCC(C)CCCC(C)CCCC(C)C)O2 (stereo not drawn) [alpha-TOCHOPHEROL [4 mM] ] | inactive | inactive | – |
| C[C@@H]1CN([C@@H](C)CO)C(=O)Cc2cc(NS(=O)(=O)c3cn(C)cn3)ccc2O[C@@H]1CN(C)CC1CCCCC1 | inactive | inactive | inactive |
| CC(CCC(=O)O)C1CCC2C3CC(O)C4CC(O)CCC4(C)C3CCC12C (stereo not drawn) [alpha-HYDROXYDEOXYCHOLIC ACID] | – | – | inactive |
| O=c1cccc(C=Cc2ccc3c(c2)OCO3)o1 [6-(3,4-METHYLENEDIOXYSTYRYL)-alpha-PYRONE ] | inactive | inactive | – |
| CNC1C(OC2C(OC3C(O)C(O)C(NC(=N)N)C(O)C3NC(=N)N)OC(C)C2(O)C=O)OC(CO)C(O)C1O.O=S(=O)(O)O (stereo not given) [STREPTOMYCIN SULFATE [5mM; 10% aq DMSO + 5mM ethanolamine]] | – | – | active |
| CC12CCCC(O)(C1)C1CC(C)(C)C1CC2 (stereo not drawn) [beta-CARYOPHYLLENE ALCOHOL ] | inactive | inactive | – |
| CCCCCCCCCCCCCCCC(=O)NCCO | inactive | inactive | inactive |
| COc1cccc(C(=O)Nc2ccc3c(c2)C(=O)N(C)[C@H]2CC[C@@H](CC(=O)NCC(F)(F)F)O[C@H]2CO3)c1 | inactive | inactive | inactive |
| C[C@@H]1CN([C@H](C)CO)C(=O)Cc2cc(NS(C)(=O)=O)ccc2O[C@H]1CN(C)S(=O)(=O)c1cn(C)cn1 | inactive | inactive | inactive |
| C[C@@H]1CN([C@@H](C)CO)C(=O)c2cc(NS(=O)(=O)c3cn(C)cn3)ccc2O[C@H]1CN(C)CC1CC1 | inactive | inactive | inactive |
| CC12CCCC(O)(C1)C1CC(C)(C)C1CC2 (stereo not drawn) [beta-CARYOPHYLLENE ALCOHOL] | – | – | inactive |
| Cc1c(C)c2c(c(C)c1O)CCC(C)(CCCC(C)CCCC(C)CCCC(C)C)O2 (stereo not drawn) [alpha-TOCHOPHEROL [4 mM]] | – | – | inactive |
| C[C@@H]1CN([C@@H](C)CO)C(=O)c2cc(NS(=O)(=O)c3ccc(Cl)cc3)ccc2O[C@@H]1CN(C)C(=O)Nc1cccc2ccccc12 | inactive | inactive | inactive |

| Compound | cytotoxicity call (HSkMC) | cytotoxicity call (HepG2) | growth inhibition call (S. aureus RN4220) |
| --- | --- | --- | --- |
| Cn1cnc(CO)n1 | inactive | inactive | inactive |
| CC(=O)Oc1cccc(C)c1 [meta-CRESYL ACETATE] | – | – | inactive |
| CCN1[C@@H]2Cn3c(ccc(-c4ccncc4)c3=O)[C@H]1[C@@H](C(=O)NCCc1cn(C)cn1)[C@@H]2CO | inactive | inactive | inactive |
| COc1ccc(NC(=O)Nc2ccc3c(c2)CC(=O)N([C@H](C)CO)C[C@@H](C)[C@H](CN(C)C(=O)Nc2ccc(C(F)(F)F)cc2)O3)cc1 | inactive | inactive | inactive |
| C[C@H](CO)N1C[C@H](C)[C@@H](CN(C)C(=O)C2CCOCC2)Oc2ncc(/C=C/c3ccccc3)cc2C1=O | inactive | inactive | inactive |
| CC(=O)Oc1cccc(C)c1 [meta-CRESYL ACETATE ] | inactive | inactive | – |
| CC(=O)Oc1c(C)c(C)c2c(c1C)CCC(C)(CCCC(C)CCCC(C)CCCC(C)C)O2 (stereo not drawn) [alpha-TOCHOPHERYL ACETATE [4mM]] | – | – | inactive |
| CC(C=CC=C(C)C=CC1=C(C)CCCC1(C)C)=CC=CC=C(C)C=CC=C(C)C=CC1=C(C)CCCC1(C)C [beta-CAROTENE [2mM]] | – | – | inactive |
| CC1(C)CCC2(C)CCC3(C)C(=CCC4C5(C)CCC(O)C(C)(C)C5CCC43C)C2C1 (stereo not drawn) [beta-AMYRIN] | – | – | inactive |
| COc1ccccc1C#Cc1cnc2c(c1)C(=O)N([C@@H](C)CO)C[C@@H](C)[C@@H](CN(C)C(=O)CN(C)C)O2 | inactive | inactive | inactive |
| CC(=O)Oc1c(C)c(C)c2c(c1C)CCC(C)(CCCC(C)CCCC(C)CCCC(C)C)O2 (stereo not drawn) [alpha-TOCHOPHERYL ACETATE [4mM] ] | inactive | inactive | – |
| C[C@H](CO)N1C[C@H](C)[C@H](CN(C)C(=O)Nc2ccc(C(C)(C)C)cc2)OCc2cnnn2CCCC1=O | inactive | inactive | inactive |
| CCC=CCC=CCC=CCC=CCC=CCCCC(=O)OCC [OMEGA-3-ACID ESTERS (EPA shown) ] | inactive | inactive | – |
| C[C@H]1CN([C@@H](C)CO)C(=O)Cc2cc(NC(=O)Nc3ccc(F)cc3)ccc2O[C@@H]1CN(C)Cc1ccc(C(=O)Nc2ccccc2N)cc1 | inactive | inactive | inactive |
| CC(CCC(=O)O)C1CCC2C3CC(O)C4CC(O)CCC4(C)C3CCC12C (stereo not drawn) [alpha-HYDROXYDEOXYCHOLIC ACID ] | inactive | inactive | – |
| C[C@H](CO)N1C[C@H](C)[C@@H](CN(C)C(=O)CCC(F)(F)F)OCCCC[C@H](C)Oc2ccc(NC(=O)NC3CCCCC3)cc2C1=O | inactive | inactive | inactive |
| CNC1C(OC2C(OC3C(O)C(O)C(NC(=N)N)C(O)C3NC(=N)N)OC(C)C2(O)C=O)OC(CO)C(O)C1O.O=S(=O)(O)O (stereo not given) [STREPTOMYCIN SULFATE [5mM; 10% aq DMSO + 5mM ethanolamine] ] | inactive | inactive | – |
| O=C1c2c(O)cc(CO)cc2C(OC2OC(CO)C(O)C(O)C2O)c2cccc(OC3OC(CO)C(O)C(O)C3O)c21 (stereo not given) [CASANTHRANOL [cascaroside A shown]] | – | – | inactive |
| O=C1c2c(O)cc(CO)cc2C(OC2OC(CO)C(O)C(O)C2O)c2cccc(OC3OC(CO)C(O)C(O)C3O)c21 (stereo not given) [CASANTHRANOL [cascaroside A shown] ] | inactive | inactive | – |
